Measured values reported in the supplement of paper PMC11543636.

Assays:
Test in all cases: Isolates counted by MIC; Broth microdilution on commercial drug-susceptibility plates, read by two operators.
[1] = test system: Mycobacterium tuberculosis lineage 3 on plate UKMYC6 (383 isolates)
[2] = test system: Mycobacterium tuberculosis lineage 4 on plate UKMYC6 (615 isolates)
[3] = test system: Mycobacterium tuberculosis lineage 4 on plate MYCOTB (1613 isolates)
[4] = test system: Mycobacterium tuberculosis lineage 2 on plate UKMYC5 (530 isolates)
[5] = test system: Mycobacterium tuberculosis lineage 2 on plate UKMYC6 (1564 isolates)
[6] = test system: Mycobacterium tuberculosis lineage 4 on plate UKMYC5 (155 isolates)
[7] = test system: Mycobacterium tuberculosis lineage 2 on plate MYCOTB (3815 isolates)
[8] = test system: Mycobacterium tuberculosis lineage 1 on plate MYCOTB (31 isolates)

Q: What does the source list for `CO[C@H]1/C=C/O[C@@]2(C)Oc3c(C)c(O)c4c(O)c(c(/C=N/N5CCN(C)CC5)c(O)c4c3C2=O)NC(=O)/C(C)=C\C=C\[C@H](C)[C@H](O)[C@@H](C)[C@@H](O)[C@@H](C)[C@H](OC(C)=O)[C@@H]1C` [rifampicin]?
A: isolate count ([1]; MIC: 0.06 mg/L): 7 [S]; isolate count ([1]; MIC: 0.12 mg/L): 143 [S]; isolate count ([1]; MIC: 0.25 mg/L): 199 [S]; isolate count ([1]; MIC: 0.5 mg/L): 25 [S]; isolate count ([1]; MIC: 1 mg/L): 2 [R]; isolate count ([1]; MIC: 2 mg/L): 1 [R]; isolate count ([1]; MIC: ≤0.03 mg/L): 1 [S]; isolate count ([1]; MIC: ≥8 mg/L): 5 [R]; isolate count ([2]; MIC: 0.06 mg/L): 75 [S]; isolate count ([2]; MIC: 0.12 mg/L): 325 [S]; isolate count ([2]; MIC: 0.25 mg/L): 166 [S]; isolate count ([2]; MIC: 0.5 mg/L): 15 [S]; isolate count ([2]; MIC: 1 mg/L): 3 [R]; isolate count ([2]; MIC: 4 mg/L): 1 [R]; isolate count ([2]; MIC: >8 mg/L): 12 [R]; isolate count ([2]; MIC: ≤0.03 mg/L): 11 [S]; isolate count ([2]; MIC: ≥8 mg/L): 7 [R]; isolate count ([3]; MIC: 0.25 mg/L): 466 [S]; isolate count ([3]; MIC: 0.5 mg/L): 85 [S]; isolate count ([3]; MIC: 1 mg/L): 6 [R]; isolate count ([3]; MIC: 2 mg/L): 1 [R]; isolate count ([3]; MIC: 4 mg/L): 3 [R]; isolate count ([3]; MIC: 8 mg/L): 2 [R]; isolate count ([3]; MIC: >16 mg/L): 19 [R]; isolate count ([3]; MIC: ≤0.12 mg/L): 980 [S]; isolate count ([3]; MIC: ≥16 mg/L): 51 [R]; isolate count ([4]; MIC: 0.06 mg/L): 4 [S]; isolate count ([4]; MIC: 0.12 mg/L): 257 [S]; isolate count ([4]; MIC: 0.25 mg/L): 115 [S]; isolate count ([4]; MIC: 0.5 mg/L): 8 [S]; isolate count ([4]; MIC: 1 mg/L): 6 [R]; isolate count ([4]; MIC: >4 mg/L): 9 [R]; isolate count ([4]; MIC: ≤0.06 mg/L): 98 [S]; isolate count ([4]; MIC: ≥4 mg/L): 33 [R]; isolate count ([5]; MIC: 0.06 mg/L): 303 [S]; isolate count ([5]; MIC: 0.12 mg/L): 550 [S]; isolate count ([5]; MIC: 0.25 mg/L): 454 [S]; isolate count ([5]; MIC: 0.5 mg/L): 62 [S]; isolate count ([5]; MIC: 1 mg/L): 8 [R]; isolate count ([5]; MIC: 2 mg/L): 8 [R]; isolate count ([5]; MIC: 4 mg/L): 10 [R]; isolate count ([5]; MIC: >8 mg/L): 86 [R]; isolate count ([5]; MIC: ≤0.03 mg/L): 49 [S]; isolate count ([5]; MIC: ≥8 mg/L): 34 [R]; isolate count ([6]; MIC: 0.12 mg/L): 85 [S]; isolate count ([6]; MIC: 0.25 mg/L): 33 [S]; isolate count ([6]; MIC: 0.5 mg/L): 3 [S]; isolate count ([6]; MIC: >4 mg/L): 2 [R]; isolate count ([6]; MIC: ≤0.06 mg/L): 28 [S]; isolate count ([6]; MIC: ≥4 mg/L): 4 [R]; isolate count ([7]; MIC: 0.25 mg/L): 1400 [S]; isolate count ([7]; MIC: 0.5 mg/L): 313 [S]; isolate count ([7]; MIC: 1 mg/L): 32 [R]; isolate count ([7]; MIC: 2 mg/L): 24 [R]; isolate count ([7]; MIC: 4 mg/L): 14 [R]; isolate count ([7]; MIC: 8 mg/L): 8 [R]; isolate count ([7]; MIC: >16 mg/L): 41 [R]; isolate count ([7]; MIC: ≤0.12 mg/L): 1710 [S]; isolate count ([7]; MIC: ≥16 mg/L): 274 [R]; isolate count ([8]; MIC: 0.25 mg/L): 8 [S]; isolate count ([8]; MIC: 1 mg/L): 1 [R]; isolate count ([8]; MIC: ≤0.12 mg/L): 20 [S]; isolate count ([8]; MIC: ≥16 mg/L): 2 [R]

Each value is the number of isolates with that result; steps that no isolate showed are left empty. MIC of clinical M. tuberculosis isolates from a national drug-resistance survey, broth microdilution on MYCOTB, UKMYC5 or UKMYC6 plates (ranges differ by plate), read after 10-21 days; higher = less susceptible. Call: the paper's susceptible [S] / resistant [R] by the drug's critical concentration (it differs by plate for some drugs); calls for ofloxacin and levofloxacin are not shown. MYCOTB plates carry ofloxacin; the paper halves those MICs to stand for levofloxacin, and they are doubled back here. The top step of a plate is printed with and without '>' in the source and is marked '>=' when plain; the plain lowest step of rifampicin and kanamycin on MYCOTB is marked '<='. Isolates that the source marks as part of the WHO data set are not listed here.
